Assay results as given in publication PMC10726135.
The list shows a part of the results. At the low end of the ranking the order means little. Measured with an extract: partners may take part in the binding.

Each sequence was assayed against T1, HNF4alpha2 (COS-7 nuclear extract) (UniProt P41235) (assay: protein-binding microarray). Settings: COS-7 nuclear extract on double-stranded Agilent 4x180k PBM; binding buffer, salt, pH and temperature not given; high values mean tight binding; double strand, one strand shown; sequences stand for … in …GCCTAGGGAGATTAGAGTATCGGTCGA.
T1 sequence: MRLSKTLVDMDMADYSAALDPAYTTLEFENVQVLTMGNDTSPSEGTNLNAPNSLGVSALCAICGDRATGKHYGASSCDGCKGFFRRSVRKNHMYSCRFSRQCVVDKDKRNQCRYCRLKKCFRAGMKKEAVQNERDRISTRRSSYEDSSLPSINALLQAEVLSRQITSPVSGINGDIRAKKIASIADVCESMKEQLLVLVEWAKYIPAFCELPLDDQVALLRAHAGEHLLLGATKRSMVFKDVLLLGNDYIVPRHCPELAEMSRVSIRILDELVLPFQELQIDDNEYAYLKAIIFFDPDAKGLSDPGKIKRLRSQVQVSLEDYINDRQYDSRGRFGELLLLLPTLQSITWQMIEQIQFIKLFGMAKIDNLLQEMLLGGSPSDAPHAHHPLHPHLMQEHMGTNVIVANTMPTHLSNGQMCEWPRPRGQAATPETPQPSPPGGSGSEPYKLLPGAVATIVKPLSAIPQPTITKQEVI
With GCCTCGCCCTGCTTCGGCTCGCGCACGGTG the binding signal (log2 normalized intensity) was -1.02. Work on CTGAAGCATGCTATTTCAGGAATGTGACCC yielded a binding signal (log2 normalized intensity) of 4.23. Work on CTAAGTCTTTCCACACAGCCTGTCAAAGGG yielded a binding signal (log2 normalized intensity) of 0.847. Work on TCAGTCTGAGATAGTCATTCTTCTACAGTG yielded a binding signal (log2 normalized intensity) of 0.876. TCACTGCTGGTGGGTGGGGGAAGTGTGGTC showed a binding signal (log2 normalized intensity) of 1.37. In the case of TGTAGGCCGTAACTGTCTCTGTTGCTCAAT, the binding signal (log2 normalized intensity) is reported as 0.109. GAGGGCGCTGTTGATGGGCAGCGCGGCGCG gave a binding signal (log2 normalized intensity) of -1.06. CCCATTCTGTGCTGGCCCTGGGGGTGGGGG showed a binding signal (log2 normalized intensity) of -0.904. GTGGGAGGGAGGCTTTTGCAGTCACTCTCT was tested, and the binding signal (log2 normalized intensity) was -1.16. For AGGTCACAGCATTAGAGCAACCAGAATGTT, the binding signal (log2 normalized intensity) was -1.13. With GGGCCCCAGGGGACGTGGAATAGATCAGCT the binding signal (log2 normalized intensity) was -1. For GGGGACTGCCTCTTCAGGAGGCACTGATAA, the binding signal (log2 normalized intensity) was -1.07. In the case of CAGACTGGTGCTATGTCCCTGACTGTGTGG, the binding signal (log2 normalized intensity) is reported as 0.55. CCCAGGTCCTTTGGTCTGGCATTCAGCGCC showed a binding signal (log2 normalized intensity) of -1.18. In the case of AGGAAAGGGCTTTGGGGACTGAAGACTTTG, the binding signal (log2 normalized intensity) is reported as -1.18. With CCAGGAGAGCCGAAGCAGTCAAATGACCCT the binding signal (log2 normalized intensity) was 3.7. With CCTGAAGCTGCCCTTTGCACATGCCCCTCC the binding signal (log2 normalized intensity) was 4.57. With GCTCATGCAGCTGCTGCCCAAAGGTCACCT the binding signal (log2 normalized intensity) was 4.93. With AGTTCATAGCAAAGTTTTTGTTCAATATGC the binding signal (log2 normalized intensity) was 1.08. For CACGTCTCAAGCTTCAGGAGTCCACTGTGT, the binding signal (log2 normalized intensity) was 1.89. AAAGATCACACAAATGGATCTTTCTTCAAA gave a binding signal (log2 normalized intensity) of -1.1. For GCCCCAGTAAAACTGGAAAATCAAAGACTC, the binding signal (log2 normalized intensity) was -1.07. With AATCCTTAAGCAGCAGATAAGGCTAATCCT the binding signal (log2 normalized intensity) was -1.15. TTGTATTTTGCCAAAGAGGTCTTATGCTCA gave a binding signal (log2 normalized intensity) of 0.386. TCACTTGTTTATCTGCTGCCCTTCCCTCCA gave a binding signal (log2 normalized intensity) of 2.79. Work on TGCACTTTGACCGCTCATTTGATCCTCACA yielded a binding signal (log2 normalized intensity) of 3.87. In the case of TTGACCTTTAGAAGGTTATTAGTGATAAGC, the binding signal (log2 normalized intensity) is reported as 2.86. AAGGTCACAGCACTGTTTATTTTGTGTGAT showed a binding signal (log2 normalized intensity) of 1.39. For AAGTTGGAATTTGGGTGATCCTGGTAGCAG, the binding signal (log2 normalized intensity) was 0.0957. With AGGCTTGCAATGCGGAATGACATTCAGCAA the binding signal (log2 normalized intensity) was -1.01. With ACCCTGACCTGGCATATCTCTGTCCCTGAT the binding signal (log2 normalized intensity) was 1.13. TGGCTCTGAAAAACAAAATGCATTTCCTTA showed a binding signal (log2 normalized intensity) of -0.626. AGTGCACATTCCAGAGAAATAGTGAGACAG gave a binding signal (log2 normalized intensity) of -1.17. In the case of GGGTAAAATGAGAATGAGACCTGCTAGGCT, the binding signal (log2 normalized intensity) is reported as -1.13. Sequence TCTGATCTTTGACTTCTAGTTCTTATCTCA has a binding signal (log2 normalized intensity) of 0.35. With CACCTGAGTCCAGAGGTCAAGGCTGCAGCG the binding signal (log2 normalized intensity) was 3.34. TTTGAAATAGTGACCTCTGCTGGCCAGTGG gave a binding signal (log2 normalized intensity) of 1.75. AAGAGACTTTGCCCTTTTTTTCTCTCCCCT gave a binding signal (log2 normalized intensity) of 3.42. For AAATAATTACTTCTTGAAGCCACTTGCTTA, the binding signal (log2 normalized intensity) was -0.981. Sequence AACTGTAGTGCATAGTGGGTTTCGGTGTCA has a binding signal (log2 normalized intensity) of 1.81.
